We go through 23 compounds from publication PMC4336329 (PLoS ONE, 2015).

Out of some 310,000 compounds screened, about 14,000 (4.5%) showed an effect of 50% or more. The effect is printed as a negative number. This is one part of the list.
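Note: peak tail current of the secondary pulse compared with the same well before compound.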

In this assay the target is human ether-à-go-go-related gene (hERG) potassium channel (human, UniProt Q12809). In words: primary screen, population patch clamp on CHO cells stably expressing hERG.
human ether-à-go-go-related gene (hERG) potassium channel, sequence (Q12809 whole entry, looked up): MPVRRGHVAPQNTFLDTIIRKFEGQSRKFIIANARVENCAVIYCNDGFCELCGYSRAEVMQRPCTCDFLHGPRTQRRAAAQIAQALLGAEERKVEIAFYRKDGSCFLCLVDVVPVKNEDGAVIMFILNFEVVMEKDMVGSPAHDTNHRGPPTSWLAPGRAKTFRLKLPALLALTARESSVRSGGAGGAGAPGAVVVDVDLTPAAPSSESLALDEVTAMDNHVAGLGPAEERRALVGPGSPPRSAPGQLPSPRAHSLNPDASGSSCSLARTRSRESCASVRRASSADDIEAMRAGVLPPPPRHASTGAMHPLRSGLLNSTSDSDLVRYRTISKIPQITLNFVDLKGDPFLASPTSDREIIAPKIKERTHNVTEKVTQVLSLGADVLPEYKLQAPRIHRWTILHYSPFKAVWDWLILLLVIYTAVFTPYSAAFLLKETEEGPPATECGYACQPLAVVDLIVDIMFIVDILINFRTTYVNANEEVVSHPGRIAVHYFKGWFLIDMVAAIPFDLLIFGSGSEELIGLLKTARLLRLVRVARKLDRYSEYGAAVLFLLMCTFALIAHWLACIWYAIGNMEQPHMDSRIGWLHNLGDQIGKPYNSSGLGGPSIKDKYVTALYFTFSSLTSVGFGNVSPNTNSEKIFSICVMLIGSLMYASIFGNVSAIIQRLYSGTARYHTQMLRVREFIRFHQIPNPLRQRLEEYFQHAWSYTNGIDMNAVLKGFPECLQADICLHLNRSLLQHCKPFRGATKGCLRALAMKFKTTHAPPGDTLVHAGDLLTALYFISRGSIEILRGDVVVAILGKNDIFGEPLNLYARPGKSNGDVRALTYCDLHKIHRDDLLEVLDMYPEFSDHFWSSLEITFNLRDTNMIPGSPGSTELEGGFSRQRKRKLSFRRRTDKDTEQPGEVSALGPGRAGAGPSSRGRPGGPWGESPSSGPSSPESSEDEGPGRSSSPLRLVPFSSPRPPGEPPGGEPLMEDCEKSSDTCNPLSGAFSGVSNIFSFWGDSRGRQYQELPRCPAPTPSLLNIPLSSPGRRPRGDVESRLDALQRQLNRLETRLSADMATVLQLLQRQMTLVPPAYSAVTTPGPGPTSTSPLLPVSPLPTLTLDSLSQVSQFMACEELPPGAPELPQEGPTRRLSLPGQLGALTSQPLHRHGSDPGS
Take `COc1ccc(/C(C)=N/Nc2ccc(C(=O)O)cc2)c(OC)c1.O=S(=O)(O)O`: the “hERG current change (%, negative = inhibition) at 10uM” value is on record as -2%.

Regarding `C/C(CC(=O)Nc1cccc(Cl)c1C)=N\NC(=O)Cc1csc(N)n1`, the “hERG current change (%, negative = inhibition) at 10uM” value amounted to 2.42%.

For `Oc1cccc(/C=N/N=C/c2cccc(O)c2O)c1O`, the “hERG current change (%, negative = inhibition) at 10uM” value amounted to 13.1%.

For `COc1ccccc1C(c1nnnn1CCc1ccccc1)N1CCN(c2ccccc2)CC1` (centres unmarked), the “hERG current change (%, negative = inhibition) at 10uM” value worked out at 1.89%.

As to `Cc1ccc(N2C(=O)NC(=O)/C(=C/c3ccc(OC(=O)c4cccs4)cc3)C2=O)cc1`, the “hERG current change (%, negative = inhibition) at 10uM” value was -10.5%.

Regarding `C[C@@H]1C=C(C(=O)N2CCN(C)CC2)O[C@H](OCc2ccc(CO)cc2)C1`, the “hERG current change (%, negative = inhibition) at 10uM” value was determined as 19.6%.

In the case of `CSc1sc(C(=O)NN)c2c1C1(CCC2)SCCS1`, the “hERG current change (%, negative = inhibition) at 10uM” value is listed as -3.81%.

For the compound `O=C(COc1ccc(F)cc1)Nc1nc2c(s1)CCCC2`, the “hERG current change (%, negative = inhibition) at 10uM” value came out at 14.2%.

On to `Cc1nc(-c2cccc(S(=O)(=O)N3CC(C)CC(C)C3)c2)cs1` (centres unmarked), for which the “hERG current change (%, negative = inhibition) at 10uM” value is -1.88%.

For the compound `COc1ccc(C(=O)Nc2ccc(C(=O)NCC3CCCO3)cc2)c(OC)c1OC` (centres unmarked), the “hERG current change (%, negative = inhibition) at 10uM” value is on record as 11.9%.

`COC(=O)Nc1nnc(-c2ccccc2OC)s1`: the “hERG current change (%, negative = inhibition) at 10uM” value was found to be 2.64%.

As for `N=c1n(CC(=O)c2ccc(Br)cc2)c2ccccc2n1Cc1ccccc1.[Br-]`, the “hERG current change (%, negative = inhibition) at 10uM” value is -9.25%.

Take `Cc1ccc(C(=O)NCC(C)(C)N2CCOCC2)s1`: the “hERG current change (%, negative = inhibition) at 10uM” value worked out at 2.43%.

With `CN(C)/C=C1\Cc2ccccc2C1=O`, the “hERG current change (%, negative = inhibition) at 10uM” value stood at 14.2%.

Turning to `O=C(C(=O)N1CCCc2ccccc21)c1cn(CC(=O)N2CCOCC2)c2ccccc12`, the “hERG current change (%, negative = inhibition) at 10uM” value is on record as -3.26%.

Take `O=C(NCc1ccco1)C(c1ccccc1)N(Cc1cccnc1)C(=O)Cn1nnc2ccccc21` (centres unmarked): the “hERG current change (%, negative = inhibition) at 10uM” value is given as -18.9%.

As to `Cc1ccc(S(=O)(=O)Nc2ccccc2C(=O)OC(C)C(=O)Nc2ccc3ccccc3c2)cc1[N+](=O)[O-]` (centres unmarked), the “hERG current change (%, negative = inhibition) at 10uM” value is -3.11%.

In the case of `O=C(CSCCN1C(=O)c2ccccc2C1=O)Nc1ccc2ccccc2c1`, the “hERG current change (%, negative = inhibition) at 10uM” value is -11.7%.

With `CCc1ccc(OCC2NCCc3cc(OC)c(OC)cc32)cc1` (centres unmarked), the “hERG current change (%, negative = inhibition) at 10uM” value is recorded as -45.2%.

As to `C=CCn1c(=O)c(C(=O)Nc2cccnc2)c(O)c2ccccc21`, the “hERG current change (%, negative = inhibition) at 10uM” value is -21%.

In the case of `O=C(O)c1ccc(NC(=O)C(c2ccccc2)c2ccccc2)cc1`, the “hERG current change (%, negative = inhibition) at 10uM” value is 14.3%.

For `C=CCn1cc(C(=O)NCCOC)c(=O)c2cc(S(=O)(=O)N3CCCCCC3)ccc21`, the “hERG current change (%, negative = inhibition) at 10uM” value was -65.8%.

For the compound `COC(=O)c1ccncc1C(=O)Nc1ccc(Oc2ncc(C(F)(F)F)cc2Cl)cc1`, the “hERG current change (%, negative = inhibition) at 10uM” value is recorded as -5.09%.
